Target: Full-length human LRP1 purified from placenta (human, UniProt Q07954 20-4544)
Assay: SPR

Sequence of UniProt Q07954 (Q07954 20-4544): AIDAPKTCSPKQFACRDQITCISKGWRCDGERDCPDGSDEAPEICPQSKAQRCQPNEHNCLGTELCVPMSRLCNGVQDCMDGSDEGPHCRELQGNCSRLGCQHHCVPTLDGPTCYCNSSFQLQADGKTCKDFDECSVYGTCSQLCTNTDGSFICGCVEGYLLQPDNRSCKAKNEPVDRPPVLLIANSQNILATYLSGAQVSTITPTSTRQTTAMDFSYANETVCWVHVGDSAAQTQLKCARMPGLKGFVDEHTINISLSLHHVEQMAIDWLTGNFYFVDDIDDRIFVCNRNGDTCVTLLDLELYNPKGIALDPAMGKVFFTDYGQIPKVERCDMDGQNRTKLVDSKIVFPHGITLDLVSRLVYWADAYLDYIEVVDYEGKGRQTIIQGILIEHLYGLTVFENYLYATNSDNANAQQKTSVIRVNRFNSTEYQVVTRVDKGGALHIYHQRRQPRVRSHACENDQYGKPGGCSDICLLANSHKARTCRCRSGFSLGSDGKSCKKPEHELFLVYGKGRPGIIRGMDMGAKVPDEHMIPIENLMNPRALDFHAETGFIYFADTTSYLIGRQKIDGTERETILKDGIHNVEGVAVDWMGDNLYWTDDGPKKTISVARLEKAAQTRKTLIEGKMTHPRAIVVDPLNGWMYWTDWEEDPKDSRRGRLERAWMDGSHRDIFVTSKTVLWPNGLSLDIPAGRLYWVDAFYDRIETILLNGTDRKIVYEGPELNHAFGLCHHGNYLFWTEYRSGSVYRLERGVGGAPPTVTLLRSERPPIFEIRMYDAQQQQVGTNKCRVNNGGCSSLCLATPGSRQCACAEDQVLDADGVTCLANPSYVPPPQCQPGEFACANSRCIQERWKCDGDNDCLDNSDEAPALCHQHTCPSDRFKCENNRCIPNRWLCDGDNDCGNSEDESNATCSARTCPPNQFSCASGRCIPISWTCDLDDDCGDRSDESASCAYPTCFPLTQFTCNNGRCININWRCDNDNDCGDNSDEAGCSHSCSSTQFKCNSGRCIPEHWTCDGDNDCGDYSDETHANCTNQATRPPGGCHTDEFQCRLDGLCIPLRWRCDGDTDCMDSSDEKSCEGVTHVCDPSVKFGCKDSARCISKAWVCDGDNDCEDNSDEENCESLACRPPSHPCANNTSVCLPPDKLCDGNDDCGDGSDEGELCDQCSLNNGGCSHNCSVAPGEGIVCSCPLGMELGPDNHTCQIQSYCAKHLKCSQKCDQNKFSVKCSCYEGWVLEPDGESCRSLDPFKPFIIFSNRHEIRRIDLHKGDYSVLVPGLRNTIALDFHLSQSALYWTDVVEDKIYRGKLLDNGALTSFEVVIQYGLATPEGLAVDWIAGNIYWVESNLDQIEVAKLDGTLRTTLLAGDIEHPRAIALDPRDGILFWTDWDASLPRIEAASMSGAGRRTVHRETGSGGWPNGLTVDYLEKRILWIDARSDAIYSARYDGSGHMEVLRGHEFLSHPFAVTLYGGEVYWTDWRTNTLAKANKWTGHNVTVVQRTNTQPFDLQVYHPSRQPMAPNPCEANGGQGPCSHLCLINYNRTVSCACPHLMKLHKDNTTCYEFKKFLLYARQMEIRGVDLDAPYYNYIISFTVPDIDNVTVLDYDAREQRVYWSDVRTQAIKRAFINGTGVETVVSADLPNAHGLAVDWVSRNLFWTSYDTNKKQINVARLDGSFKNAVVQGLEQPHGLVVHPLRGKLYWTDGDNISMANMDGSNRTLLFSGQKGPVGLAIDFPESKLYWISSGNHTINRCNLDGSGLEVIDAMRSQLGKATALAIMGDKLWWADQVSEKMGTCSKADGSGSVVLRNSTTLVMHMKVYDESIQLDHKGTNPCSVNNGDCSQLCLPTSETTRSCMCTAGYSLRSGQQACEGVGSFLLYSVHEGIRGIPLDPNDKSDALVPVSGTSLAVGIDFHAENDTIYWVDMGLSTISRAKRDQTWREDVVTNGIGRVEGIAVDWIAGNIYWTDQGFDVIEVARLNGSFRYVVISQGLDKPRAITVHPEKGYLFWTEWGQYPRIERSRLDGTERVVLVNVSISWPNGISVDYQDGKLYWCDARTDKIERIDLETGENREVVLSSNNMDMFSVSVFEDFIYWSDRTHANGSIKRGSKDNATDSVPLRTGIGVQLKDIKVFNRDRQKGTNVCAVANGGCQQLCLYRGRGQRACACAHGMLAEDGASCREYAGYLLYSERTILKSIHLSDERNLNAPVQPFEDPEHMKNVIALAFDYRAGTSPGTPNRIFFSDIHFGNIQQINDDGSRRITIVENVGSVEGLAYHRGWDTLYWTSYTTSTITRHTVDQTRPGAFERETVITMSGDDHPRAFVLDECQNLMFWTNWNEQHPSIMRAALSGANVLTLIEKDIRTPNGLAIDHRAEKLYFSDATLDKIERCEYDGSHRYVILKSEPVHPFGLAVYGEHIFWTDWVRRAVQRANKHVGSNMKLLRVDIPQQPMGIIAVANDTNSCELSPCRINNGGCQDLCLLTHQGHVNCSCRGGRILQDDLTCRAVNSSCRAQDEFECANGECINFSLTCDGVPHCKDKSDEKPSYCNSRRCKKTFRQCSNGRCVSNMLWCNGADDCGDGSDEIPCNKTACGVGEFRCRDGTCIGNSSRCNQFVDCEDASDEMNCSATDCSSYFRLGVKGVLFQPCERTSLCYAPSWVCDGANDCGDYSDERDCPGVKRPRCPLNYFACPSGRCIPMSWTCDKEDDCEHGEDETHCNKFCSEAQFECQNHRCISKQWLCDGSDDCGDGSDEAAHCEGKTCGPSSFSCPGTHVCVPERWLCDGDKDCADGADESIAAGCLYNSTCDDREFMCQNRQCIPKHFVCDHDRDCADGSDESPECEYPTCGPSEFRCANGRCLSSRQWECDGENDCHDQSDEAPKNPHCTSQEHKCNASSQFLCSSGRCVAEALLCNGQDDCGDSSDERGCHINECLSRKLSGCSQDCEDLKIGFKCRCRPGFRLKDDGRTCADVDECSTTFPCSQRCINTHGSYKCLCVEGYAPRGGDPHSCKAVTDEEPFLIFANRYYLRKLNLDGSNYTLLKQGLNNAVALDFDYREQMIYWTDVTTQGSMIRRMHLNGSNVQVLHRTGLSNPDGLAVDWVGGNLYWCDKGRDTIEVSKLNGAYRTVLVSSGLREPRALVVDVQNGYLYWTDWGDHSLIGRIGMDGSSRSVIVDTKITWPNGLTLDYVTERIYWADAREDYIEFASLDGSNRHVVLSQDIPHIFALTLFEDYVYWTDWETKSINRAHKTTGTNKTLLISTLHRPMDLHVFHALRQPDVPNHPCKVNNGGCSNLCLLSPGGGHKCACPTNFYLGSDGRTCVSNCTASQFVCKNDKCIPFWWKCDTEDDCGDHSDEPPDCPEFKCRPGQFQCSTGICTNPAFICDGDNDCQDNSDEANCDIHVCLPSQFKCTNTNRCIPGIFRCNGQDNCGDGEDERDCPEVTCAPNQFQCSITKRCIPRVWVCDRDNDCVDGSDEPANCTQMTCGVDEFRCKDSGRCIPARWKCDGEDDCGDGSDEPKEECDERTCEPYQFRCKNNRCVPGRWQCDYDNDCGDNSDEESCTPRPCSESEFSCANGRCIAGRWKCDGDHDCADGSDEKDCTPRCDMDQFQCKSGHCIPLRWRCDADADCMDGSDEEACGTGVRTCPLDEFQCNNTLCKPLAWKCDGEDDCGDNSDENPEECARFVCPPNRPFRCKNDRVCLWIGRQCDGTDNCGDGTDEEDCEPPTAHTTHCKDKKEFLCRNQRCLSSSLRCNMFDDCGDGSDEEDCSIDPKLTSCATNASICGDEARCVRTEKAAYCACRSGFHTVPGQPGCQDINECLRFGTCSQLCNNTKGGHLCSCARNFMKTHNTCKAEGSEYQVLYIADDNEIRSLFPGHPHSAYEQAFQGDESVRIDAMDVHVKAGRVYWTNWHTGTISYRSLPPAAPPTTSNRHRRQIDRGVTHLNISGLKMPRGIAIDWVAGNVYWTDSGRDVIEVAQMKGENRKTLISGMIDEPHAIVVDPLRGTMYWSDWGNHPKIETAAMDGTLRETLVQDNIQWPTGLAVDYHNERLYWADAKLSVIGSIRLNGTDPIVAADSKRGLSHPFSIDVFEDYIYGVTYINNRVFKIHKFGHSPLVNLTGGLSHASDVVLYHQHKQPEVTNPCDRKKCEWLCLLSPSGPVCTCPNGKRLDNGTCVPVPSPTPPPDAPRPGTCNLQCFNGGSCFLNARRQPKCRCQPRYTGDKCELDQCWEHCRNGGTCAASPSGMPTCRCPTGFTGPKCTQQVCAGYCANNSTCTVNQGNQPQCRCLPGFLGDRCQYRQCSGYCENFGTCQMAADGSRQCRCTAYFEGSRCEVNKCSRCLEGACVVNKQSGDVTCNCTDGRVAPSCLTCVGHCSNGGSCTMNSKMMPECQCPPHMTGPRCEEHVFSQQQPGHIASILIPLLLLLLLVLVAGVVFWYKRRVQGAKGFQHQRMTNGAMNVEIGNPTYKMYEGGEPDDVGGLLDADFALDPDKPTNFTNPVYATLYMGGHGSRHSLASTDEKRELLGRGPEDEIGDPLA

Binder	Kd [nM]
recombinant human tau 2N3R (natural protein) not shown	278 ± 55
tau microtubule binding domain (MBD; SP-496) (domain or fragment) not shown	73 ± 18

From doi:10.1101/2020.11.17.386581 (bioRxiv, 2020)
